Test results as given in patent publication US6974794B1, “Hemoglobin-antioxidant conjugates” (Hemosol LP, priority 1999, dated 2005).

Test system: erythrocytes
Test: Hemolysis of erythrocytes mediated by peroxyl radicals (AAPH); protection of RBCs against lysis
Type: cell-based
Details: Table 4; hemoglobin 0.20 mM (12-13 mg/ml) in RBC assay suspension, under CO, 37° C.; bound Trolox 0.32 mM (A), 0.45 mM (B); lower AUC = greater protection
Method: Blood was collected into heparinized tubes and erythrocytes were separated by centrifugation and washed 3 times with 10 volumes of PBS, pH 7.4. During the last washing, erythrocytes were centrifuged at 1000×g for 10 minutes to obtain a consistently packed cell preparation. The assay for hemolysis mediated by peroxyl radicals was conducted by a modified method of Miki et al.,(M. Miki, H. Tamai, M. Mino, Y. Yamamoto and E. Niki., Arch. Biochem. Biophys. 258:373-380 (1987)). Equal volumes of a 30% suspension of fresh erythrocytes in PBS pH 7.4, test sample, and 300 mM 2,2;-azo-bis(2-amidinopropane dihydrochloride) (AAPH, a radical generator) were combined in order. […] As a measure of Hb released due to RBC lysis, the absorbances of supernatants were measured at 540 nm after conversion of all Hb to CN-metHb according to the method of Tentori (Meth. Enzymology 75:707 (1981)). […]
The results for two products are presented graphically in FIG. 1, a plot of relative RBC lysis against time for the various products. Products analyzed were prepared as described for reaction #6 (Hb-Trolox B) and reaction #7 (Hb-Trolox A) in Table 1 of Example 1. […] Relative protection was also determined by comparison of areas under the curves (AUC) obtained by plotting RBC lysate absorbance versus time. AUC is determined by the time of onset, rate, and overall extend of RBC lysis. […]

B1: Hb-Trolox A: hemoglobin-Trolox conjugate prepared as described for reaction #7 in Table 1 (conjugate, UniProt P69905 2-142; P68871 2-147, looked up)
Hemoglobin subunit alpha: VLSPADKTNVKAAWGKVGAHAGEYGAEALERMFLSFPTTKTYFPHFDLSHGSAQVKGHGKKVADALTNAVAHVDDMPNALSALSDLHAHKLRVDPVNFKLLSHCLLVTLAAHLPAEFTPAVHASLDKFLASVSTVLTSKYR
Hemoglobin subunit beta: VHLTPEEKSAVTALWGKVNVDEVGGEALGRLLVVYPWTQRFFESFGDLSTPDAVMGNPKVKAHGKKVLGAFSDGLAHLDNLKGTFATLSELHCDKLHVDPENFRLLGNVLVCVLAHHFGKEFTPPVQAAYQKVVAGVANALAHKYH
modifications: Trolox conjugate
With B1 the “AUC relative to AAPH control (%)” value was 10%.

B2: Hb-Trolox B: hemoglobin-Trolox conjugate prepared as described for reaction #6 in Table 1 (conjugate, UniProt P69905 2-142; P68871 2-147, looked up)
Hemoglobin subunit alpha: VLSPADKTNVKAAWGKVGAHAGEYGAEALERMFLSFPTTKTYFPHFDLSHGSAQVKGHGKKVADALTNAVAHVDDMPNALSALSDLHAHKLRVDPVNFKLLSHCLLVTLAAHLPAEFTPAVHASLDKFLASVSTVLTSKYR
Hemoglobin subunit beta: VHLTPEEKSAVTALWGKVNVDEVGGEALGRLLVVYPWTQRFFESFGDLSTPDAVMGNPKVKAHGKKVLGAFSDGLAHLDNLKGTFATLSELHCDKLHVDPENFRLLGNVLVCVLAHHFGKEFTPPVQAAYQKVVAGVANALAHKYH
modifications: Trolox conjugate
B2 was tested, and the “AUC relative to AAPH control (%)” value was 4%.
